{
  "source": "the supplement of paper PMC9446081",
  "note": "Hit rate of the full screen: of about 39,000 compounds, about 220 (0.56%) showed activity. The list shows a part of the results.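 Note: static incubation at 37 °C against the wild-type strain, values averaged over two biological replicates.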",
  "data": [
    {"system": "Escherichia coli K-12 BW25113", "experiment": "relative growth (OD600 normalised to plate interquartile mean) (fraction); higher = less growth inhibition, active = 0.2 or less", "conditions": "50 µM; LB; incubation time: overnight (16-24 h)", "values": [
      {"smiles": "Cn1cnc(S(=O)(=O)N2C[C@@H](O)COC[C@@H]3O[C@@H](CC(=O)NC4Cc5ccccc5C4)CC[C@H]32)c1", "relative growth": "inactive: 0.983"},
      {"smiles": "C[C@@H]1CN([C@@H](C)CO)C(=O)c2cccc(NC(=O)Nc3ccc(C(F)(F)F)cc3)c2O[C@H]1CN(C)C(=O)NC1CCCCC1", "relative growth": "inactive: 0.741"},
      {"smiles": "C[C@H](CO)N1C[C@H](C)[C@@H](CN(C)C(=O)NC2CCCCC2)Oc2c(NC(=O)Nc3cccc4ccccc34)cccc2C1=O", "relative growth": "inactive: 0.995"},
      {"smiles": "COc1ccc([C@@H]([C@H](Cc2ccccc2)OC(C)=O)N2C[C@H]3[C@H]([C@@H](OC(C)=O)c4ccccc4)ON(C)[C@H]3[C@@H]2Cc2ccccc2)cc1", "relative growth": "inactive: 0.99"},
      {"smiles": "C[C@H](CO)N1C[C@H](C)[C@@H](CN(C)C(=O)Nc2cccc3ccccc23)Oc2ccc(NC(=O)Cn3cnnn3)cc2C1=O", "relative growth": "inactive: 1.01"},
      {"smiles": "O=C(CN1CCOCC1)N[C@H]1CC[C@@H](CCNC(=O)C2CCC2)O[C@H]1CO", "relative growth": "inactive: 1.04"},
      {"smiles": "C[C@H](CO)N1C[C@H](C)[C@@H](CN(C)C)OCCCC[C@H](C)Oc2ccc(NC(=O)Nc3ccc(C(F)(F)F)cc3)cc2C1=O", "relative growth": "inactive: 0.994"},
      {"smiles": "C[C@@H]1CCCCO[C@@H](CN(C)C(=O)CCCN(C)C)[C@H](C)CN([C@H](C)CO)C(=O)c2cc(N(C)C)ccc2O1", "relative growth": "inactive: 1.01"},
      {"smiles": "C[C@@H]1CCCCO[C@@H](CN(C)C(=O)CCC(F)(F)F)[C@@H](C)CN([C@H](C)CO)C(=O)c2cc(NS(=O)(=O)c3ccc(Cl)cc3)ccc2O1", "relative growth": "inactive: 0.925"},
      {"smiles": "C[C@@H]1CCCCO[C@H](CN(C)C(=O)Nc2ccc(C(F)(F)F)cc2)[C@H](C)CN([C@@H](C)CO)C(=O)c2cc(NS(=O)(=O)c3ccc(F)cc3)ccc2O1", "relative growth": "inactive: 1.01"},
      {"smiles": "Cc1noc(C)c1NC(=O)N(C)C[C@H]1Oc2ccc(NC(=O)Nc3ccc(C(F)(F)F)cc3)cc2C(=O)N([C@@H](C)CO)C[C@@H]1C", "relative growth": "inactive: 0.98"},
      {"smiles": "Cc1cc(=O)[nH]c(=S)[nH]1", "relative growth": "inactive: 1.19"},
      {"smiles": "CC(C)NC(=O)N(C)C[C@@H]1Oc2ccc(NC(=O)Cn3cnnn3)cc2C(=O)N([C@H](C)CO)C[C@H]1C", "relative growth": "inactive: 0.977"},
      {"smiles": "COc1ccc(C#Cc2cccc(-c3nc(C(=O)N4CCN(Cc5ccccc5)CC4)cc4c3[C@H](CCO)N(S(=O)C(C)(C)C)C4)c2)cc1OC", "note": "(stereo partly drawn)", "relative growth": "inactive: 1.05"},
      {"smiles": "C[C@H](CO)N1C[C@H](C)[C@H](CN(C)Cc2ccccc2)Oc2ccc(NC(=O)Nc3cccc4ccccc34)cc2CC1=O", "relative growth": "inactive: 1.03"},
      {"smiles": "C[C@H]1CCCCO[C@@H](CN(C)Cc2ccc3c(c2)OCO3)[C@@H](C)CN([C@@H](C)CO)C(=O)c2cc(NC(=O)C3CCCCC3)ccc2O1", "relative growth": "inactive: 0.979"},
      {"smiles": "O=C(C[C@@H]1CC[C@H](NS(=O)(=O)c2ccccc2)[C@H](CO)O1)NCc1ccncn1", "relative growth": "inactive: 0.989"},
      {"smiles": "Cc1noc(C)c1NC(=O)N(C)C[C@H]1Oc2ccc(NC(=O)C3CC3)cc2C(=O)N([C@H](C)CO)C[C@@H]1C", "relative growth": "inactive: 0.976"},
      {"smiles": "COc1ccc(NC(=O)Nc2ccc3c(c2)C(=O)N([C@H](C)CO)C[C@H](C)[C@@H](CN(C)CC2CCCCC2)OCCCC[C@H](C)O3)cc1", "relative growth": "inactive: 0.965"},
      {"smiles": "C[C@H](CO)N1C[C@H](C)[C@H](CN(C)S(=O)(=O)c2ccccc2)Oc2ccc(NC(=O)Cc3ccccc3)cc2C1=O", "relative growth": "inactive: 1"},
      {"smiles": "COc1cccc(S(=O)(=O)Nc2ccc3c(c2)OC[C@H](C)N(C(=O)Cc2cccnc2)C[C@@H](C)[C@@H](OC)CN(C)C3=O)c1", "relative growth": "inactive: 0.978"},
      {"smiles": "Cc1noc(C)c1S(=O)(=O)Nc1ccc2c(c1)CC(=O)N([C@@H](C)CO)C[C@@H](C)[C@@H](CN(C)S(=O)(=O)c1ccc(Cl)cc1)O2", "relative growth": "inactive: 1.04"},
      {"smiles": "COc1ccc(NC(=O)N(C)C[C@H]2OCCCC[C@@H](C)Oc3ccc(NC(=O)NC(C)C)cc3C(=O)N([C@@H](C)CO)C[C@H]2C)cc1", "relative growth": "inactive: 1"},
      {"smiles": "CSc1cccc(NC(=O)/C=C/c2ccc(C(C)C)cc2)c1", "relative growth": "inactive: 1.05"},
      {"smiles": "COc1ccc(C#Cc2cnc3c(c2)C(=O)N([C@H](C)CO)C[C@@H](C)[C@H](CN(C)CC2CCOCC2)O3)cc1", "relative growth": "inactive: 0.995"},
      {"smiles": "C[C@H](CO)N1C[C@H](C)[C@H](CN(C)Cc2ccccc2)Oc2ccc(NC(=O)Cn3cnnn3)cc2C1=O", "relative growth": "inactive: 1.03"},
      {"smiles": "COc1ccccc1NC(=O)N(C)C[C@@H]1Oc2ncc(Br)cc2C(=O)N([C@H](C)CO)C[C@H]1C", "relative growth": "inactive: 1"},
      {"smiles": "Cc1ccc(S(=O)(=O)N2C[C@@H](O)COC[C@@H]3O[C@H](CC(=O)NCc4ccc(Cl)c(Cl)c4)CC[C@H]32)cc1", "relative growth": "inactive: 1"},
      {"smiles": "C[C@H](CO)N1C[C@H](C)[C@@H](CN(C)C(=O)Nc2ccccc2)Oc2cc(C#C[C@@H](C)O)ccc2S1(=O)=O", "relative growth": "inactive: 0.99"},
      {"smiles": "O=C(C[C@H]1CC[C@H](NC(=O)C2CC2)[C@H](CO)O1)NCCCN1CCOCC1", "relative growth": "inactive: 0.992"},
      {"smiles": "CCCNC(=O)N(C)C[C@@H]1Oc2cc(-c3ccc(C)cc3)ccc2S(=O)(=O)N([C@@H](C)CO)C[C@@H]1C", "relative growth": "inactive: 1"},
      {"smiles": "COc1ccc(CN(C)C[C@@H]2OCCCC[C@H](C)Oc3ccc(NC(=O)Nc4ccc(C(F)(F)F)cc4)cc3C(=O)N([C@H](C)CO)C[C@@H]2C)cc1", "relative growth": "inactive: 0.969"},
      {"smiles": "C[C@@H]1CCCCO[C@@H](CN(C)S(=O)(=O)c2ccccc2)[C@H](C)CN([C@@H](C)CO)C(=O)c2cc(NC(=O)c3ccccc3)ccc2O1", "relative growth": "inactive: 1.01"},
      {"smiles": "C[C@H]1CN([C@@H](C)CO)S(=O)(=O)c2ccc(C#CC3CC3)cc2O[C@H]1CN(C)C(=O)C1CCCCC1", "relative growth": "inactive: 1.01"},
      {"smiles": "C[C@@H]1CN([C@H](C)CO)C(=O)c2cc(NC(=O)Nc3ccc4c(c3)OCO4)ccc2O[C@@H](C)CCCCO[C@@H]1CN(C)C(=O)NC1CCCCC1", "relative growth": "inactive: 1.04"},
      {"smiles": "CO[C@H]1CN(C)C(=O)c2cc(NS(C)(=O)=O)ccc2OC[C@@H](C)N(C(=O)C2CCOCC2)C[C@@H]1C", "relative growth": "inactive: 1"},
      {"smiles": "CC(C)NC(=O)Nc1cccc2c1O[C@H](CN(C)C(=O)Nc1ccc3c(c1)OCO3)[C@H](C)CN([C@H](C)CO)C2=O", "relative growth": "inactive: 0.997"},
      {"smiles": "NC(=O)[C@@H]1CCOC1", "relative growth": "inactive: 0.953"},
      {"smiles": "C[C@@H]1CN([C@H](C)CO)C(=O)Cc2cc(NC(=O)C3CC3)ccc2O[C@H]1CN(C)Cc1ccc(Oc2ccccc2)cc1", "relative growth": "inactive: 0.988"},
      {"smiles": "COc1ccccc1OCC(O)CO", "note": "(stereo not drawn)", "relative growth": "inactive: 1.11"},
      {"smiles": "C[C@H]1CN([C@@H](C)CO)C(=O)c2cccc(NC(=O)CCCCCC(=O)Nc3ccccc3N)c2O[C@H]1CN(C)C(=O)Nc1ccc(F)cc1", "relative growth": "inactive: 0.959"},
      {"smiles": "COc1ccc(NC(=O)Nc2cccc3c2O[C@H](CN(C)CC2CCCCC2)[C@@H](C)CN([C@@H](C)CO)C3=O)cc1", "relative growth": "inactive: 0.981"},
      {"smiles": "CC(C)CC#Cc1cnc2c(c1)C(=O)N([C@@H](C)CO)C[C@@H](C)[C@@H](CN(C)S(=O)(=O)c1ccccc1)O2", "relative growth": "inactive: 0.993"},
      {"smiles": "C[C@H]1CN([C@@H](C)CO)C(=O)Cc2cc(NC(=O)CCC(F)(F)F)ccc2O[C@@H]1CN(C)Cc1ccc(-c2ccccc2)cc1", "relative growth": "inactive: 1.02"},
      {"smiles": "COc1ccc(S(=O)(=O)Nc2ccc3c(c2)C(=O)N([C@@H](C)CO)C[C@H](C)[C@@H](CN(C)C(=O)NC(C)C)O3)cc1", "relative growth": "inactive: 0.999"},
      {"smiles": "C[C@H](CO)N1C[C@H](C)[C@H](CN(C)S(=O)(=O)c2ccccc2)Oc2cc(Br)ccc2S1(=O)=O", "relative growth": "inactive: 0.929"},
      {"smiles": "Cc1noc(C)c1S(=O)(=O)Nc1ccc2c(c1)C(=O)N([C@@H](C)CO)C[C@H](C)[C@H](CN(C)C(=O)Nc1ccccc1)OCCCC[C@H](C)O2", "relative growth": "inactive: 1.01"},
      {"smiles": "CN1C(=O)c2cc(NC(=O)c3cnccn3)ccc2OC[C@H]2O[C@H](CC(=O)NCC3CCCCC3)CC[C@@H]21", "relative growth": "inactive: 1.01"},
      {"smiles": "Cc1noc(C)c1NC(=O)N(C)C[C@H]1Oc2ccc(NC(=O)Cn3cnnn3)cc2C(=O)N([C@@H](C)CO)C[C@H]1C", "relative growth": "inactive: 0.984"},
      {"smiles": "C[C@@H]1CN([C@@H](C)CO)C(=O)c2cc(NC(=O)NC3CCCCC3)ccc2O[C@@H](C)CCCCO[C@@H]1CN(C)Cc1ccc(C(=O)O)cc1", "relative growth": "inactive: 1.03"},
      {"smiles": "COc1ccc(C#Cc2ccc3c(c2)[C@]2(C(=O)N3)[C@H](c3ccc(O)cc3)N3[C@H](c4ccccc4)[C@H](c4ccccc4)OC(=O)[C@H]3[C@@H]2C(=O)N2CCN(c3ncccn3)CC2)cc1", "relative growth": "inactive: 1.03"},
      {"smiles": "C[C@H]1CN([C@@H](C)CO)C(=O)c2cccc(NS(=O)(=O)c3ccc(Cl)cc3)c2O[C@@H]1CN(C)Cc1ccc(Oc2ccccc2)cc1", "relative growth": "inactive: 1.01"},
      {"smiles": "C[C@H]1CCCCO[C@H](CN(C)S(=O)(=O)c2ccc(F)cc2)[C@@H](C)CN([C@@H](C)CO)C(=O)c2cc(NS(=O)(=O)c3ccc(Cl)cc3)ccc2O1", "relative growth": "inactive: 1.06"},
      {"smiles": "COc1ccc(NC(=O)N(C)C[C@H]2Oc3ccc(NC(=O)Nc4cccc5ccccc45)cc3C(=O)N([C@@H](C)CO)C[C@H]2C)cc1", "relative growth": "inactive: 1.02"},
      {"smiles": "O=C(C[C@@H]1CC[C@@H]2[C@H](COC[C@H](O)CN2C(=O)c2cccnc2)O1)NCc1ccc(-c2ccccc2)cc1", "relative growth": "inactive: 0.98"},
      {"smiles": "COc1oc(C(=O)NC2CCCCC2)c(-c2ccc(Cl)cc2)c1S(=O)(=O)c1ccc(Cl)cc1", "relative growth": "inactive: 0.976"},
      {"smiles": "Cc1noc(C)c1NC(=O)N(C)C[C@H]1Oc2c(NC(=O)C3CC3)cccc2C(=O)N([C@H](C)CO)C[C@@H]1C", "relative growth": "inactive: 1"},
      {"smiles": "C[C@H]1CCCCO[C@H](CN(C)CC2CC2)[C@@H](C)CN([C@@H](C)CO)C(=O)c2cc(NC(=O)Nc3ccc(C(F)(F)F)cc3)ccc2O1", "relative growth": "inactive: 0.921"}
    ]}
  ]
}
